Laboratory results: PubChem BioAssay AID1794842 (National Center for Advancing Translational Sciences (NCATS), 2023)
In all, about 2,800 compounds went through this assay and fewer than 10 were called active. Calls follow the shape of the dose curve; as a rule, active = well fitted curve in the direction sought with a large enough effect; inconclusive = small, poorly fitted or top-dose-only effect, or another doubt; inactive = no such curve, though single readings can be large or run the other way. This is one part of the list.

These molecules were tested against Metallo-beta-lactamase type 2 (Klebsiella pneumoniae) (UniProt C7C422) (assay: qHTS to identify inhibitors of the New Delhi Metallo-beta-lactamase (NDM): Meropenem screen against the machine-based learning selections.). Details: Purified NDM-1, meropenem hydrolysis, absorbance 300 nm; at 38.4 µM (top of the series) unless noted.
Procedure, shortened: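 NDM-1 (2 nM final) in 50 mM HEPES pH 7.0, 1 uM Zn2SO4, 0.01% Tween20 was preincubated with compounds for >30 min. Nitrocefin (16.7 uM final) was read at 485 nm after 15 min, and meropenem (50 uM final) at 300 nm after 30 min.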
Also: % of control where 0% means no effect.

Chain of UniProt C7C422 (C7C422 whole entry, looked up): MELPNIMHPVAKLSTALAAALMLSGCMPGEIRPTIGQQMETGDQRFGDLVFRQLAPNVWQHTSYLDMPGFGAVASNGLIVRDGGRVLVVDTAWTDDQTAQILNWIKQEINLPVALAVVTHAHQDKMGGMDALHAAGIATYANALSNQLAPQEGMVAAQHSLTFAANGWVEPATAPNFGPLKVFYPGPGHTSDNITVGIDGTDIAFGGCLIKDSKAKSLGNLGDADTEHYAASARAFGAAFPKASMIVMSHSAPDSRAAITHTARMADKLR

Activity change, negative = inhibition, inactive:
O=c1c2nc(-c3ccc(O)c(F)c3)ccc2ncn1-c1ccc(F)cc1F -2.92% [at 57.5 µM], OC[C@H]1C[C@@H](NCc2cccc3c2OCO3)[C@H](O)[C@@H]1O 7.96% [at 76.7 µM], Cn1ccc2c(C(=O)NCCc3cnc[nH]3)nc(-c3ccc([S+](C)(=O)[O-])cc3)cc21 25.8% [at 57.5 µM], COc1cccc(CN2CCOC[C@H](Oc3cccnc3)C2)c1 1.48% [at 57.5 µM], OC[C@@H]1CN(c2ccc(-c3nc(-c4cccc(C(F)(F)F)c4)no3)cn2)C[C@H]1CO 0.088%, CN1C[C@H](NCc2cccc(Cl)c2)CCC[C@@H](C(=O)N(C)Cc2cccnc2)CC1=O 1.33%, O=C(c1csc(Cc2ccccc2)n1)N1CC[C@H](CO)[C@@H](O)C1 0.0675%, COc1ccc(-c2cccc(CCOc3cnc4c(ccn4CC(=O)O)c3)c2)c(C)c1 17.7% [at 57.5 µM], Cc1ccc2c(c1)nc1n2[C@@H](CNC(=O)c2cccnc2)COC1 -0.8% [at 57.5 µM], COC(=O)[C@@H]1Cc2c([nH]c3ccccc23)[C@H]2C[C@@H](NCCN(C)C)C[C@@H](c3cccc(Cl)c3)N21 -2.26%, Cc1ccc(CN2CC[C@@H]3[C@H]2C(=O)NC[C@H](CCC(=O)N2CC[C@@H](O)C2)N3C)cc1 4.68% [at 57.5 µM], CC(=O)Nc1ccc(CN[C@@H]2CO[C@H](CNS(C)(=O)=O)[C@H]2O)cc1 -1.28% [at 57.5 µM], C[C@@]1(O)CCN(C(=O)CN)C[C@@H]1Cc1ccccc1 7.56%, COCCCNC(=O)C1CC(=O)N(c2n[nH]c3cccc(F)c23)C1 (configuration not stated) 5.7%, Oc1cccc(CN2CCCC23CCN(c2ccc(C(F)(F)F)cn2)CC3)c1 -0.547%, O=C(N[C@H]1CCN2C(=O)c3ccccc3NC(=O)[C@@H]2C1)C1CCCC1 0.219% [at 57.5 µM], COc1ccc(CC(=O)N2CC[C@@H](CC(=O)O)[C@@H](CCN(CCN3CCOCC3)c3ccccc3)C2)cc1 8.16%, Clc1cc(NC2CCOCC2)n2nccc2n1 4.93% [at 57.5 µM], O=C(NCCc1ccc(Cl)cc1)c1nc(-c2ccc(F)cc2)c2ccccn12 2.16%, C[C@H](O)c1onc(-c2ccc(Cl)cc2)c1C(=O)NC1CCC1 -0.707% [at 57.5 µM], Cc1noc([C@@H](C)NS(=O)(=O)c2ccc(Cl)cc2)c1C(=O)O 5.22% [at 57.5 µM], O=C(NCc1cccnc1)c1nc(-c2ccccc2)cc2[nH]ccc12 1.32% [at 57.5 µM], Cn1cc(CNCC2(COc3cccnc3)C[C@@H](O)[C@@H](O)C2)c2ccccc21 (some centres not stated) 51.9%, COc1ccccc1-c1ccc2ncc(Nc3ccc(CCO)cc3)n2n1 14.9% [at 57.5 µM], O=C(N[C@@H]1C[C@H](Cn2cc(C3CC3)nn2)[C@@H](O)[C@H]1O)c1cncnc1 47.4% [at 57.5 µM], Cc1noc(C)c1[S+](=O)([O-])N1CCC2(CC1)CC(=O)c1ccccc1O2 2.67%, O=C(NCC1CCOCC1)Nc1cc(F)c(F)c(F)c1 -0.795%, O=c1c2nc(-c3cccc(O)c3)ccc2ncn1C1CC1 29.4% [at 76.7 µM], COc1ccccc1-c1nnc([C@H]2CCN(Cc3ccccc3O)C2)o1 31.8% [at 57.5 µM], O=C(NCc1ccc2c(c1)OCO2)C1CCN(c2cn[nH]c(=O)c2)C1 (configuration not stated) 7.33%, O=C([C@@H]1C[C@H](F)CN1C(=O)NC1CCCC1)N1CCc2ccccc2C1 2.82%, COC[C@H]1C[C@@H](NC(=O)C2CCOCC2)[C@H](O)[C@@H]1O 19.1% [at 76.7 µM], O=C(CC(c1cccc(O)c1)c1ccccc1Cl)NCc1cccnc1 (configuration not stated) 53%, O=C(NC1C[C@H]2CC[C@@H](C1)N2C(=O)c1ccn[nH]1)c1ccncc1 (some centres not stated) -0.927%, CCc1nc2c(c(-c3ccc(Cl)cc3)n1)CN([S+](=O)([O-])c1ccc(C)cc1)CC2 1.22%, CC(C)c1cc(CN(C)Cc2cn[nH]c2-c2ccc(F)cc2)no1 1.33%, CC1=C[C@@H](CO)[C@H](C(C)C)C[C@H]1Cc1nnc(Cc2c[nH]c3ccccc23)o1 -0.951% [at 57.5 µM], COc1ccc(CNC(=O)C[C@@H]2O[C@H](CNC(=O)NC(C)C)[C@@H](O)[C@H]2O)cc1 55.8% [at 57.5 µM], CN(C)[C@H]1CCN(C(=O)Cc2cn(C)c3ccccc23)C[C@H]1CCC(=O)O -1.41%, Cc1ccc(C(=O)N2CC[C@@H]3CN(S(C)(=O)=O)[C@@H]3C2)c(=O)[nH]1 4.02%, O=C(NC1CCC(n2cnnc2)CC1)c1ccc(Cn2cnnn2)cc1 (configuration not stated) -0.42%, Cc1ccc2nc(C)cc(C(=O)N3CCC(c4cc(CC(=O)O)[nH]n4)CC3)c2c1 82.3%, OC1CC([C@@H](Cc2ccccn2)NC2CCC3(CCNCC3)CC2)C1 (some centres not stated) 39.1%, O=C(N[C@H]1CCN2C(=O)c3cc(-c4ccc(F)cc4F)ccc3NC(=O)[C@H]12)c1cccs1 2.94%, COc1ccc2nc([C@H]3CCN(C4CCN(C)CC4)C3)[nH]c2c1 4.12% [at 57.5 µM], CC(=O)c1ccc(NC(=O)N[C@H]2CCN3C(=O)[C@@H](Cc4ccccc4)NC(=O)[C@H]23)cc1 18% [at 57.5 µM], COc1ccc(CN2CCC[C@H]2c2nc(-c3cncnc3N)no2)c(O)c1 9.36% [at 57.5 µM], c1cncc(Nc2cc3c(cn2)CN(Cc2cccs2)CCN3)c1 14% [at 57.5 µM], O=C(NCc1cccnc1)[C@@H]1C[C@@H](c2ccc(F)cc2)N(Cc2ccccc2)C1 -0.331% [at 57.5 µM], COc1ccc(CCN(Cc2ccncc2)C(=O)CC2COCCN2)cc1 (configuration not stated) 66.9%, Fc1ccc(-c2ccc3ncc(Nc4ccccn4)n3n2)cc1 13.9% [at 57.5 µM], CCn1ccc2cc(C(=O)N3CCC(=O)N(CC4CC4)C(C(C)C)C3)ccc21 (configuration not stated) -2.06%, COC(=O)c1ccc2nc(C[C@@H]3C[C@@H](C(C)C)[C@H](CN(C)C)C=C3C)[nH]c2c1 -3.18% [at 57.5 µM], CS(=O)(=O)N1CCCC(c2nc(-c3ccccc3)no2)CCNC(=O)CC1 (configuration not stated) 0.558%, C[C@]1(CO)[C@H]2Cc3sc(NC(=O)c4ccc(F)cc4)nc3[C@@H](CC(=O)Nc3ccccc3)[C@]2(C)CC[C@H]1O 1.39%, NC(=O)c1ccc(Nc2cnc3ccc(-c4ccccc4)nn23)cc1 18.6% [at 57.5 µM], NCCn1cc(C(=O)NCCS(=O)(=O)N2CCCC2)nn1 -0.385%, CC(=O)NC1(C)CCCN(Cc2cc(-c3ccccc3)cs2)C1 (configuration not stated) -0.985% [at 57.5 µM], O=C(O)c1ccc(-c2ncc3cnc(-c4cccc(F)c4)cn23)cc1 67.6% [at 57.5 µM], Cc1cccc(-n2cc(CN3CCN(c4cc(N)nc(N)n4)CC3)cn2)c1 1.22%, CCNC(=O)N1CC[C@@H](CC(=O)O)[C@@H](CC2=NCCc3ccc(C)cc32)C1 13% [at 57.5 µM], O[C@@H]1[C@@H](Cn2cc(-c3cccnc3)nn2)C[C@@H](NCc2ccc(F)cc2)[C@@H]1O 52.8%, O=C(N[C@H](Cc1ccncc1)C1CC(O)C1)c1ccc(CO)o1 (some centres not stated) -0.128%, Cc1ccc(NC(=O)N2CCCC(Cn3c(C4CC4)nc4cccnc43)C2)c(C)c1 (configuration not stated) -0.195%, CC(=O)Nc1ccc(S(=O)(=O)N[C@H]2CO[C@H]3[C@@H]2OC[C@@H]3n2nnnc2Oc2ccc(-n3ccnc3)cc2)cc1 0.151%, Cc1c(CN2C[C@@H](COc3ccccc3)[C@H](C(N)=O)C2)cnn1C -2.84%, CN1CCC(OCCCn2cnc3cn(C)nc3c2=O)CC1 -0.7%, O=C(NCc1cccnc1)c1ccc2oc(-c3ccc(C(F)(F)F)cc3)nc2c1 1.9%, CC1(COc2ccccc2)COc2ccc(C(=O)NCCc3ccccn3)cc2N1 (configuration not stated) 7.78% [at 57.5 µM], O=C1[C@@H]2C[C@@H](O)CN2C2(CN(C3Cc4ccccc4C3)C2)C(=O)N1Cc1ccccc1F 1.17%, CC(NC(=O)OCc1ccccc1)c1nc2cccnc2n1C1CCCCC1 (configuration not stated) 1.17%, O=C1C[C@@H]2CCN(C(=O)Nc3ccccc3)C[C@@H]2CCN1CCc1cnc[nH]1 5.4% [at 57.5 µM], COc1cccc(CN2CC3(C2)C(=O)N(Cc2ccccc2F)C(=O)[C@@H]2C[C@@H](O)CN23)c1 1%, COc1ccc(C2(C(=O)N3CCCC(Cc4nc(C5CCOCC5)no4)C3)CC2)cc1 (configuration not stated) -1.04%, Cc1nccc(-c2ccccc2)c1C(=O)N[C@H]1C[C@@H]2OCC[C@H]12 7.5%, C[C@@]1(O)CCN(c2ncccc2C(=O)c2nccs2)C[C@@H]1O 8.46%, C[C@@H](NS(=O)(=O)c1ccccc1)c1onc(-c2cccnc2)c1C(=O)O 2.4% [at 57.5 µM]
